# Test results from paper PMC12136788.
# Some of the results follow.
# B1: 99997043_99997940_968_CDS_ENSMUSG00000021012_ENSMUST00000110105|mouse|control|control (ssRNA)
# RNA: GGGAGUUCUACAGUCCGACGAUCAAAGUUUUCGUCCUCAAUACUCAUUUUAUCCAAGUUGUUUCUGAAGAAGGGGCUAUAAGUGUCUUCUACGCUGCUAAGCACUGGUGGCUCACACAACCGUCCUGCUUCGGAUACCUGGCUCAACAGAGGAUUGAGCAUCA
# B2: 52701090_52703304_1850_CDS_ENSMUSG00000004535_ENSMUST00000080723|mouse|control|control (ssRNA)
# RNA: GGGAGUUCUACAGUCCGACGAUCCUGAACUUUGUAGUUAUCCUCUACUUCAGCUAGUUCAAGUUUUACAUUUUCAGCAAUUUUCACUUGUUCUUUCCACUUCAGCUCCAUUUUGGCAAGUUCUUCAGCGUAUUUAUUGCACUUCAACAGAGGAUUGAGCAUCA
# B3: chr7:155493584:155493585:+_ENSG00000184863_ENST00000401878|hu_mus|motif|central (ssRNA)
# RNA: GGGAGUUCUACAGUCCGACGAUCAGAAAGUUCCAAAGUUUCUGGAAUGUUCCUUCUCUCUCUAGUUACAUCUGAAAGCCGGAUAAUUGUUCCUUCUUUCCUUUCAGUUUUAAAACGUAAUCGUCCAGAUUCUUCAUCAUCAUCCAACAGAGGAUUGAGCAUCA
# B4: chr1:39494564:39494565:+_ENSG00000168653_ENST00000372967|hu_hu|hu_hu_hu_mus_True|1_98 (ssRNA)
# RNA: GGGAGUUCUACAGUCCGACGAUCAUGCAUUCGCCUCAUCGUUUUCUACCGAAGCAAGCACUCUUCGAAGUCAUCGAACUCUAUCUUGCACUCCUUUUUCGCCCGGGUCCCACCGAUCCCGUGUGCACACUCUAUCCAUUCUUUCAACAGAGGAUUGAGCAUCA
# B5: 204520434_204520554_3319_3pUTR_ENSG00000198625_ENST00000367182|human|control|control (ssRNA)
# RNA: GGGAGUUCUACAGUCCGACGAUCUAUUGCCUUGGUGUAAGCAGCUCCAGAGGCACUAAACAAAAGGAUCAAAAAAAAUCUAAAUGACUCCUAAGACGCAAAGAGGGUAGGGGGCAGUAGCUCAGGACUGCAAUCCUAGCACUUCAACAGAGGAUUGAGCAUCA
# B6: chr22:32879901:32879902:+_ENSG00000100225_ENST00000397426|hu_mus|hu_hu_hu_mus_False|1_98 (ssRNA)
# RNA: GGGAGUUCUACAGUCCGACGAUCCUCUUCCAUACUCGCAUUAUCUUGAAUUGACUCAGCUUCAACAUUUUGACUAGGCCCUUCCAUACUGUCAUCAGUCCAGGCAUCAAAUGGGGUGGCCUGUCCUUGGGAUGAAUCACUUGGCAACAGAGGAUUGAGCAUCA
# B7: chr19:6374144:6374145:+_ENSMUSG00000024949_ENSMUST00000113487|mus_mus|FALSE|FALSE (ssRNA)
# RNA: GGGAGUUCUACAGUCCGACGAUCUGGUCCAUUUGGGUUGUGCUGCAUGGGAUGCCCACCAUGCCCACCUGUCAGGCUGGGUAAUGGGUGUGGGAAGCUGUGGGGGCCACCUCCAGGACCACCAGGACCACCUCCAUGCAUGCCCAACAGAGGAUUGAGCAUCA
# B8: chr12:73045124:73045125:+_ENSMUSG00000034574_ENSMUST00000085299|mus_hu|FALSE|FALSE (ssRNA)
# RNA: GGGAGUUCUACAGUCCGACGAUCGCCUUGAGAGUUGUUCAUUAACGCCUUUAUACAGCCAAUGAGAGAAGUAUGUAUUCGAGACUCUGAGGUCUCGUAGUCCAUGGUCUUUAGAAAGUUGAGGAUACAUGAUAGGCCAUCCAACAACAGAGGAUUGAGCAUCA
# B9: 1782286_1782559_860_CDS_ENSG00000132383_ENST00000254719|human|control|control (ssRNA)
# RNA: GGGAGUUCUACAGUCCGACGAUCUGUGAACUGCUUGUUAGCAAUCUUCAGGGUGCCUUUCGAGAAAUAAUACACCUUGUUCACUUCAAUAAGAGGAAAGAACUUGUCCACUUGCUCAUUGAAAGCUGUAGCUCGGAUUUCACCCAACAGAGGAUUGAGCAUCA
# B10: chr1:88248876:88248877:-_ENSMUSG00000026234_ENSMUST00000027438|perfect_dup|motif|central (ssRNA)
# RNA: GGGAGUUCUACAGUCCGACGAUCUUCCAUUUUAUUACAGGAAUUUAAAGCUUCUUUAGCAUCUUCAAAUGAAGCAAAUUCGGUAAAUGCAUACCCUUUAGGUUUGCCAUGUGGGUUCUGGGGCACUUUGAUAAAAGUUGCUUUCAACAGAGGAUUGAGCAUCA
# B11: chr6:38652254:38652255:-_ENSG00000124767_ENST00000373365|hu_hu|hu_hu_hu_mus_False|18_108 (ssRNA)
# RNA: GGGAGUUCUACAGUCCGACGAUCCGAAAACUUCAUAGCAGGGAAGUCAAGCUUCUGCAGGAGGGUCAGUCCAAGAACCCUCGUAUAAAAAUCCAGGGACUUCUUAGGAUCCUUAAUUCGUAGCAUGGUUUGCUGCAGUAGAAACAACAGAGGAUUGAGCAUCA
# B12: 141887142_141887986_1707_CDS_ENSMUSG00000041688_ENSMUST00000112835|mouse|control|control (ssRNA)
# RNA: GGGAGUUCUACAGUCCGACGAUCAAUAAUCUGGGCAUGGAGGGUCUUAAUCCUUCCUUCCAUGUCCAAGCAACGCUUGUUGGCCAUCAGGAUUUCUUCCUCUUCCUUCUGGAUGCGGGCCUCUAAGGCUGUGUCAUAGCUGGUCAACAGAGGAUUGAGCAUCA
# B13: chr8:73282188:73282189:+_ENSMUSG00000031840_ENSMUST00000034301|mus_mus|FALSE|FALSE (ssRNA)
# RNA: GGGAGUUCUACAGUCCGACGAUCAGAGUGACAUCUGGUCCCCUCUUCACAACUGACAACUGUGGACGGGAUGGUUUACAAAAACAAAAUGGGGGUGGGGGGUAAAGGAGAGGGAGCAGCAGUGACCACAAUACACCACGGCCGCAACAGAGGAUUGAGCAUCA
# B14: 25274920_25277050_2474_CDS_ENSG00000100994_ENST00000216962|human|control|control (ssRNA)
# RNA: GGGAGUUCUACAGUCCGACGAUCGCAGGCGAUGUUCCUGAUGACCUUCUUGGUCCACUCCUUGGGGUUCCGGUACAGCUGGUCCACCUGUGCCUGGCACUGCAUGUAGGCUUCAUAGUCUGCAAACACCUUGAACCUGUCAUGCAACAGAGGAUUGAGCAUCA
# B15: chr1:220379288:220379289:-_ENSG00000118873_ENST00000358951|hu_hu|FALSE|FALSE (ssRNA)
# RNA: GGGAGUUCUACAGUCCGACGAUCUGAUGCUGCAGCUUUUGCUACCUGAUUUCGACAAGCACGAAGAGAUUGAAAAAGGCUAAAUCCAUCAAUAGUCACAAUGGCAGCUGGAUAUAAGAUACUCAACUCUUCAUUCUGCUCAGUCAACAGAGGAUUGAGCAUCA
# B16: chr6:41067180:41067181:+_ENSG00000001167_ENST00000341376|hu_mus|FALSE|FALSE (ssRNA)
# RNA: GGGAGUUCUACAGUCCGACGAUCAAACCCAAGCAUCUGCAUCAAAGGAAAGAAAACUCAAACUUGCCUACGAGGUUAGGGUUAUGUACAAACUUACAGACACGAAUAAAUAGCAUUCUACAACUGCUGGCUGAAGCGCUACUGCAACAGAGGAUUGAGCAUCA
# B17: 113119565_113119685_3220_3pUTR_ENSMUSG00000042873_ENSMUST00000162280|mouse|control|control (ssRNA)
# RNA: GGGAGUUCUACAGUCCGACGAUCCUCUCCAGAUCUCUCUCUCUCUCUCUCUCUCUCUCUCUCUCUCUCUCUCUCUCUCUCUCUCUCUCUCUCUCUCCAUUCUCUCCAUUCCUCCCUUUCCAUGCCUGUCGCCUGUCUCCUGCCCAACAGAGGAUUGAGCAUCA
# B18: chr7:99056824:99056825:-_ENSG00000241468_ENST00000394186|hu_mus|FALSE|FALSE (ssRNA)
# RNA: GGGAGUUCUACAGUCCGACGAUCUCAGUGGUACUUGCGUCGCCGCUCAUGUUUGAGUUCCUUGUAAGAAAUGCAGUAGCUGAAAACCACGUAGGCUGCCAGGACCAUGCUAAUCCCCGAGAUGCUGCCUUUCCGAACGUUGAUCAACAGAGGAUUGAGCAUCA
# B19: 93998217_93998337_1080_3pUTR_ENSMUSG00000055932_ENSMUST00000069718|mouse|control|control (ssRNA)
# RNA: GGGAGUUCUACAGUCCGACGAUCCCUCUCCUUGUUUCAAAACUGCAGGAUCAAAGGAUUUCAACGAGACGUCGCCAUCGUCUGAGUCAUUGAGGACAUUCUGCAGCGCCAACUGACAGCGUUCUAAGAUAUAAUCCAAGGUGCCAACAGAGGAUUGAGCAUCA
# B20: chr9:59188957:59188958:-_ENSMUSG00000025235_ENSMUST00000026265|mus_mus|FALSE|FALSE (ssRNA)
# RNA: GGGAGUUCUACAGUCCGACGAUCGGCCACCUGCUUGAGAUUAUCAGCACACUGUGGGCUGAGAACAGCACAUGUCUGAAAGAGUUCUAGGGAUUCUUGGAUAUUUCCUUCCAGGCGAAAAAUCAGUGCUUGGACAUAGAUAGCCAACAGAGGAUUGAGCAUCA
# B21: chr6:40197388:40197389:+_ENSMUSG00000057716_ENSMUST00000061740|mus_mus|mus_mus_mus_hu_False|18_18 (ssRNA)
# RNA: GGGAGUUCUACAGUCCGACGAUCGAGACACUGGGGUGGAUUUAUUCCACCUCUGUUUGGGUGCUAGCCACUAAGACUGUUAUUUUGGGAUUCAUGGCCUUGAAUAUCAAGAGGGAAGGGACGAGAAUGGAAAGAGUCAAGAGUCAACAGAGGAUUGAGCAUCA
# B22: chr19:16212804:16212805:+_ENSG00000167460_ENST00000300933|hu_mus|hu_hu_hu_mus_False|58_58 (ssRNA)
# RNA: GGGAGUUCUACAGUCCGACGAUCAACAAUUCUGGAGUGAAGGAAAGAUGUAACAUGGAACAGCAUUAAAGCUCAGUAUUACUAUAUAUGGGCAACAAUGAUCACCCCAGCAUUCUCGCUUGGAAUGCUUAAAGACAAUCUGUUCAACAGAGGAUUGAGCAUCA
# Molecular target: T1, UNK ZnF1-3 (human, UniProt Q9C0B0 31-174)
# T1 sequence: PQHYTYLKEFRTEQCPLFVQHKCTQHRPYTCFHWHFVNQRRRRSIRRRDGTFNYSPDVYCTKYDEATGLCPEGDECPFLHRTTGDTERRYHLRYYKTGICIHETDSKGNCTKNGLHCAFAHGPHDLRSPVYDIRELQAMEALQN
# Assay: nsRBNS (natural sequence RNA bind-n-seq); RBNS binding buffer (assumed for nsRBNS): 25 mM Tris pH 7.5, 150 mM KCl, 3 mM MgCl2, 0.01% Triton X-100, 500 ug/ml BSA, 20 U/ml SUPERase-In, 4 C; UNK is unkempt and MSI1 is Musashi-1; names of the RNAs are library labels; protein concentration not given here; high values mean tight binding
row,Binder,binding signal
1,B1,0.661 enrichment R
2,B2,0.311 enrichment R
3,B3,0.78 enrichment R
4,B4,0.798 enrichment R
5,B5,1.64 enrichment R
6,B6,0.9 enrichment R
7,B7,0.674 enrichment R
8,B8,0.699 enrichment R
9,B9,0.826 enrichment R
10,B10,0.771 enrichment R
11,B11,0.531 enrichment R
12,B12,0.62 enrichment R
13,B13,1.96 enrichment R
14,B14,0.534 enrichment R
15,B15,1.15 enrichment R
16,B16,1.54 enrichment R
17,B17,0.404 enrichment R
18,B18,0.658 enrichment R
19,B19,1.14 enrichment R
20,B20,1 enrichment R
21,B21,1.23 enrichment R
22,B22,1.07 enrichment R
